PubChem BioAssay AID493208 (National Center for Advancing Translational Sciences (NCATS), 2011)
Screen size: about 44,000 compounds; about 340 (0.77%) were called active. Another 5% or so got no clear call; they are omitted. The call rests on the fitted dose curve; in most records, active means well fitted inhibition curve with a large enough effect; inconclusive means small, poorly fitted or top-dose-only effect; inactive means flat fitted curve, though single readings scatter. The list shows a part of the results.

Assay: Acumen qHTS Assay for Inhibitors of the mTORC1 Signaling Pathway in MEF (Tsc2-/-, p53-/-) Cells: Sytravon;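 further: plate controls were DMSO for no effect and rapamycin for full effect; nearly all actives have a fitted effect of over 50% in size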
Conditions: phospho-rpS6 immunofluorescence/PI, 24 h; series mostly up to 38.3 µM; activity change, negative = inhibition: at the top concentration
In short: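 Readout is phospho-S6 Alexa 488 signal normalized to PI per well, reported as % active cells with thresholds set from rapamycin (7.5 nM) and DMSO controls. Cells: Tsc2-/-, p53-/- MEFs, 24 hrs compound at 37 C; PI cell number serves as viability.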

Activity change, negative = inhibition, inactive:
O=C(CSc1nccn1C1CCCC1)Nc1cccc(F)c1 -6.9%
CSCC[C@@H](C(=O)Nc1cccc(F)c1)N1Cc2ccccc2C1=O -13.3%
CCOCCc1nn2c(=O)cc(COC(=O)Cc3ccccc3)nc2s1 3.57%
CCOC(=O)c1cc2c(=O)n3ccccc3nc2n(Cc2ccco2)c1=NC(=O)c1ccc(C)c(C)c1 -14.5%
CN(c1ccccc1)S(=O)(=O)c1nnc(NC(=O)COc2ccccc2)s1 3.46%
O=C(Cn1c(=O)oc2cc(S(=O)(=O)N3CCCCCC3)ccc21)Nc1ccc(F)cc1F -1.25%
O=C(Nc1cc2c(cc1C(=O)c1cccc(Br)c1)OCCO2)c1ccccc1F -29.1%
Cc1ccc(-n2c(=O)c3ccc(C(=O)NCc4ccco4)cc3n(CC(=O)Nc3ccccc3C(F)(F)F)c2=O)cc1 -0.793%
CN(C(=O)Cn1cnc2onc(-c3ccc(F)cc3)c2c1=O)c1ccccc1Cl 2.3%
Cc1cc(C)cc(-n2c(C)cc(C(=O)C(=O)Nc3nnc(C)s3)c2C)c1 1.62%
CCOc1ccccc1CNC(=O)c1ccc(NC(=O)N2CC(C)Sc3ccccc32)cc1 (configuration not stated) 1.59%
O=C(NC1(C(F)(F)F)C(=O)Nc2c1c(=O)[nH]c(=O)n2-c1ccccc1)c1ccccc1 (configuration not stated) -5.02%
CCCN(CCC)C(=O)Cn1c(SCc2cccc(C(F)(F)F)c2)nc2cccnc21 1.2%
CCOc1ccc(C(=O)NCc2nc3cccnc3n2Cc2cccc(OC)c2)cc1 -11%
N#Cc1ccccc1NC(=O)C(=O)NCCc1csc2nc(-c3cccc(F)c3)nn12 1.78%
COc1ccc(OC)c(CNC(=O)CN(c2ccc(C)cc2)S(=O)(=O)N(C)C)c1 -3.94%
Cc1cccc(NC(=O)N2CCN(C)c3ncccc32)c1C 2.55%
Cc1cccc(OCCSc2nc3ccccc3n2CC(=O)N2CCOCC2)c1C 0.311%
O=S(=O)(Nc1cccc(-c2ccc(N3CCCC3)nn2)c1)c1cc(F)ccc1F -1.06%
CCOc1ccc(S(=O)(=O)Nc2ccc(OC)c(Cl)c2)c2cccnc12 -9.46%
Cc1ccc(NC(=O)C2CCCN(S(=O)(=O)c3c(C)nn(C)c3C)C2)c(C)c1 (configuration not stated) 3.4%
CCOc1ccc(C2C(C(N)=O)=C(C)Nc3nc(-c4cccc(Cl)c4)nn32)cc1OC (configuration not stated) -0.249%
CCN1C(=O)c2ccccc2S(=O)c2ccc(C(=O)NCc3ccccc3OC)cc21 (configuration not stated) -6.96%
O=C(O)c1c2c(nc3ccc(S(=O)(=O)N4CCC(C(=O)NCc5ccc(Cl)cc5)CC4)cc13)CCCC2 -5.49%
COc1cccc(CNC(=O)Cn2c(SCC(=O)Nc3ccc(C)c(C)c3)nc3ccccc32)c1 9.08%
CSc1ccc(NC(=O)Cn2nnnc2-c2ccccc2F)cc1 -1.58%
COc1ccc(S(=O)(=O)NCC(c2ccco2)N2CCN(c3ccccc3F)CC2)cc1C (configuration not stated) 0.264%
COc1cc(/C=C/c2nc3cc(Cl)ccc3c(=O)n2-c2ccc(C)cc2C)cc(OC)c1OC 11.4%
CCOC(=O)c1c(C)oc2nc(C)nc(N3CCN(c4cccc(C)c4C)CC3)c12 -9.95%
COc1ccc(Nc2ncnc3c2nc2n3CCCC2)cc1Cl -8.49%
COc1nnc(-c2ccc(N3CCCCC3)c(NC(=O)c3ccccc3)c2)c2ccccc12 -2.05%
O=C(NCC(c1cccnc1)N1CCc2ccccc21)C(=O)Nc1ccccc1F (configuration not stated) -3.27%
CCc1cccc(NC(=O)c2cccc3c2C(=O)N(C2CCCCC2)C3)c1 -0.676%
CC(NC(=O)c1cc(-c2ccc(Cl)cc2)on1)c1ccccc1 (configuration not stated) -13.3%
CCOC(=O)c1c(C)n(S(=O)(=O)c2ccc(C)cc2)c2ccc(NS(=O)(=O)c3ccc(C)cc3)cc12 0.127%
CCOC(=O)c1nnn(CC(=O)NC(=O)Nc2ccc(F)cc2)c1C(=O)OCC -9.03%
COc1ccc(CNC(=O)c2ccc3c(c2)N(Cc2ccccc2)CCS3)cc1 -11.1%
Cc1ccccc1Nc1nnc(-c2ccc(C)c(S(=O)(=O)N3CCCCC3)c2)c2ccccc12 1.89%
Cc1ccccc1C(=O)Nc1ccc2oc(-c3ccc(Cl)c(Cl)c3)nc2c1 1.38%
CC(C)Oc1ccc(C(=O)Nc2nc3c(s2)CC(C(C)(C)C)CC3)cc1 (configuration not stated) 2.31%
CC1Cn2cc(C(=O)Nc3ccccc3C(F)(F)F)c(=O)c3c(Cl)ccc(c32)O1 (configuration not stated) -3.83%
O=C(NCC(c1ccc2c(c1)OCO2)N1CCN(c2ccccc2)CC1)c1ccccc1 (configuration not stated) -4.1%
Cc1oc2ncn(CC(C)C)c(=O)c2c1C(=O)N(Cc1ccccc1)C(C)C 5.63%
Cc1nc2nc(C(F)(F)F)[nH]n2c(=O)c1Cc1ccccc1 3.24%
COc1cc(OC)c(NC(=O)c2cn(C)c(=O)c3cc(OC)c(OC)cc23)cc1Cl -9.75%
O=C(/C=C/c1ccccc1)N1CCN(Cc2cc(=O)n3nc(-c4ccccc4Cl)sc3n2)CC1 14.8%
Cc1ccc(Cn2c(C)c3cnn(CC(=O)N4CCN(c5ccc(F)cc5)CC4)c(=O)c3c2C)cc1 1.38%
